Measured values as given in the supplement of paper PMC8728848.
The other results are listed elsewhere or left out.

Tests used:
Experiment in all cases: glycan array binding signal (z-score within array); higher = stronger binding
Conditions in all cases: glycan notation: IUPAC condensed, linker removed
[1] = biological target: Fuc(a1-2)[Gal(a1-3)]Gal(b1-3)GlcNAc(b1-6)GalNAc
In short: (§1)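 Arrays were curated from the Consortium for Functional Glycomics database, 3228 in total, and kept only where the protein sequence was available. Binding is expressed as a within-array Z-score. This score was averaged across arrays of the same protein sequence at different concentrations or buffers and across linkers, and negative values can be read as non-binding.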

[2] = biological target: Fuc(a1-2)[Gal(a1-3)]Gal(b1-4)Glc
In short: as §1

[3] = biological target: Fuc(a1-2)[Gal(a1-3)]Gal(b1-4)GlcNAc
In short: as §1

[4] = biological target: Fuc(a1-2)[Gal(a1-3)]Gal(b1-4)GlcNAc(b1-2)Man
In short: as §1

[5] = biological target: Fuc(a1-2)[Gal(a1-3)]Gal(b1-4)GlcNAc(b1-2)Man(a1-3)[Fuc(a1-2)[Gal(a1-3)]Gal(b1-4)GlcNAc(b1-2)Man(a1-6)]Man(b1-4)GlcNAc(b1-4)GlcNAc
In short: as §1

[6] = biological target: Fuc(a1-2)[Gal(a1-3)]Gal(b1-4)GlcNAc(b1-2)Man(a1-3)[Fuc(a1-2)[Gal(a1-3)]Gal(b1-4)GlcNAc(b1-2)Man(a1-6)]Man(b1-4)GlcNAc(b1-4)[Fuc(a1-6)]GlcNAc
In short: as §1

[7] = biological target: Fuc(a1-2)[Gal(a1-3)]Gal(b1-4)GlcNAc(b1-3)GalNAc
In short: as §1

[8] = biological target: Fuc(a1-2)[Gal(a1-3)]Gal(b1-4)GlcNAc(b1-3)[Fuc(a1-2)[Gal(a1-3)]Gal(b1-4)GlcNAc(b1-6)]GalNAc
In short: as §1

[9] = biological target: Fuc(a1-2)[Gal(a1-3)]Gal(b1-4)GlcNAc(b1-6)GalNAc
In short: as §1

[10] = biological target: Fuc(a1-2)[Gal(a1-3)]Gal(b1-4)[Fuc(a1-3)]Glc
In short: as §1

[11] = biological target: Fuc(a1-2)[Gal(a1-3)]Gal(b1-4)[Fuc(a1-3)]GlcNAc
In short: as §1

[12] = biological target: Fuc(a1-2)[Gal(a1-3)]Gal(b1-4)[Fuc(a1-3)]GlcNAc(b1-3)GalNAc
In short: as §1

[13] = biological target: Fuc(a1-2)[Gal(a1-4)]Gal(b1-4)GlcNAc
In short: as §1

[14] = biological target: Fuc(a1-2)[GalNAc(a1-3)]Gal
In short: as §1

[15] = biological target: Fuc(a1-2)[GalNAc(a1-3)]Gal(b1-3)GalNAc(a1-3)[Fuc(a1-2)]Gal(b1-4)GlcNAc
In short: as §1

[16] = biological target: Fuc(a1-2)[GalNAc(a1-3)]Gal(b1-3)GalNAc(b1-3)Gal(a1-4)Gal(b1-4)Glc
In short: as §1

[17] = biological target: Fuc(a1-2)[GalNAc(a1-3)]Gal(b1-3)GlcNAc
In short: as §1

[18] = biological target: Fuc(a1-2)[GalNAc(a1-3)]Gal(b1-3)GlcNAc(b1-2)Man(a1-3)[Fuc(a1-2)[GalNAc(a1-3)]Gal(b1-3)GlcNAc(b1-2)Man(a1-6)]Man(b1-4)GlcNAc(b1-4)GlcNAc
In short: as §1

[19] = biological target: Fuc(a1-2)[GalNAc(a1-3)]Gal(b1-3)GlcNAc(b1-2)Man(a1-3)[Fuc(a1-2)[GalNAc(a1-3)]Gal(b1-3)GlcNAc(b1-2)Man(a1-6)]Man(b1-4)GlcNAc(b1-4)[Fuc(a1-6)]GlcNAc
In short: as §1

[20] = biological target: Fuc(a1-2)[GalNAc(a1-3)]Gal(b1-3)GlcNAc(b1-3)GalNAc
In short: as §1

[21] = biological target: Fuc(a1-2)[GalNAc(a1-3)]Gal(b1-3)GlcNAc(b1-6)GalNAc
In short: as §1

[22] = biological target: Fuc(a1-2)[GalNAc(a1-3)]Gal(b1-4)Glc
In short: as §1

[23] = biological target: Fuc(a1-2)[GalNAc(a1-3)]Gal(b1-4)GlcNAc
In short: as §1

[24] = biological target: Fuc(a1-2)[GalNAc(a1-3)]Gal(b1-4)GlcNAc(b1-2)Man
In short: as §1

[25] = biological target: Fuc(a1-2)[GalNAc(a1-3)]Gal(b1-4)GlcNAc(b1-2)Man(a1-3)[Fuc(a1-2)[GalNAc(a1-3)]Gal(b1-4)GlcNAc(b1-2)Man(a1-6)]Man(b1-4)GlcNAc(b1-4)GlcNAc
In short: as §1

[26] = biological target: Fuc(a1-2)[GalNAc(a1-3)]Gal(b1-4)GlcNAc(b1-2)Man(a1-3)[Fuc(a1-2)[GalNAc(a1-3)]Gal(b1-4)GlcNAc(b1-2)Man(a1-6)]Man(b1-4)GlcNAc(b1-4)[Fuc(a1-6)]GlcNAc
In short: as §1

[27] = biological target: Fuc(a1-2)[GalNAc(a1-3)]Gal(b1-4)GlcNAc(b1-3)Gal(b1-4)GlcNAc
In short: as §1

[28] = biological target: Fuc(a1-2)[GalNAc(a1-3)]Gal(b1-4)GlcNAc(b1-3)Gal(b1-4)GlcNAc(b1-3)Gal(b1-4)GlcNAc
In short: as §1

[29] = biological target: Fuc(a1-2)[GalNAc(a1-3)]Gal(b1-4)GlcNAc(b1-3)GalNAc
In short: as §1

[30] = biological target: Fuc(a1-2)[GalNAc(a1-3)]Gal(b1-4)GlcNAc(b1-3)[Fuc(a1-2)[GalNAc(a1-3)]Gal(b1-4)GlcNAc(b1-6)]GalNAc
In short: as §1

[31] = biological target: Fuc(a1-2)[GalNAc(a1-3)]Gal(b1-4)GlcNAc(b1-6)GalNAc
In short: as §1

[32] = biological target: Fuc(a1-2)[GalNAc(a1-3)]Gal(b1-4)[Fuc(a1-3)]GlcNAc
In short: as §1

[33] = biological target: Fuc(a1-2)[GalNAc(a1-3)]Gal(b1-4)[Fuc(a1-3)]GlcNAc(b1-3)GalNAc
In short: as §1

[34] = biological target: Fuc(a1-2)[GalNAc(a1-4)]Gal(b1-4)GlcNAc
In short: as §1

[35] = biological target: Fuc(a1-2)[GalNAc(b1-3)]Gal
In short: as §1

Fuc(a1-3)GlcNAc = biological target: Fuc(a1-3)GlcNAc
In short: as §1

[36] = biological target: Fuc(a1-3)[Gal(b1-4)]Glc6S
In short: as §1

[37] = biological target: Fuc(a1-3)[Gal(b1-4)]GlcNAc
In short: as §1

[38] = biological target: Fuc(a1-3)[Gal(b1-4)]GlcNAc(b1-2)Man
In short: as §1

[39] = biological target: Fuc(a1-3)[Gal(b1-4)]GlcNAc(b1-2)Man(a1-3)[Fuc(a1-3)[Gal(b1-4)]GlcNAc(b1-2)Man(a1-6)]Man(b1-4)GlcNAc(b1-4)GlcNAc
In short: as §1

[40] = biological target: Fuc(a1-3)[Gal(b1-4)]GlcNAc(b1-2)Man(a1-3)[Fuc(a1-3)[Gal(b1-4)]GlcNAc(b1-2)Man(a1-6)]Man(b1-4)GlcNAc(b1-4)[Fuc(a1-6)]GlcNAc
In short: as §1

[41] = biological target: Fuc(a1-3)[Gal(b1-4)]GlcNAc(b1-3)Gal(b1-3)[Fuc(a1-4)]GlcNAc
In short: as §1

[42] = biological target: Fuc(a1-3)[Gal(b1-4)]GlcNAc(b1-3)Gal(b1-4)[Fuc(a1-3)]GlcNAc
In short: as §1

[43] = biological target: Fuc(a1-3)[Gal(b1-4)]GlcNAc(b1-3)Gal(b1-4)[Fuc(a1-3)]GlcNAc(b1-3)Gal(b1-4)[Fuc(a1-3)]GlcNAc
In short: as §1

[44] = biological target: Fuc(a1-3)[Gal(b1-4)]GlcNAc(b1-3)GalNAc
In short: as §1

B1: Gal 1 (Mus musculus), P16045 (protein)
chain: MACGLVASNLNLKPGECLKVRGEVASDAKSFVLNLGKDSNNLCLHFNPRFNAHGDANTIVCNTKEDGTWGTEHREPAFPFQPGSITEVCITFDQADLTIKLPDGHEFKFPNRLNMEAINYMAADGDFKIKCVAFE
Q: With B1 as the binder, how does the “glycan array binding signal (z-score)” value [1] read?
A: -0.272

Q: And the “glycan array binding signal (z-score)” value [2]?
A: -0.308

Q: And the “glycan array binding signal (z-score)” value [3]?
A: -0.078

Q: What about the “glycan array binding signal (z-score)” value [4] of the same binder?
A: -0.291

Q: And the “glycan array binding signal (z-score)” value [5]?
A: 0.106

Q: And the “glycan array binding signal (z-score)” value [6]?
A: 0.008

Q: What about the “glycan array binding signal (z-score)” value [7] of the same binder?
A: -0.361

Q: What about the “glycan array binding signal (z-score)” value [8] of the same binder?
A: -0.279

Q: What about the “glycan array binding signal (z-score)” value [9] of the same binder?
A: -0.106

Q: What about the “glycan array binding signal (z-score)” value [10] of the same binder?
A: -0.455

Q: And the “glycan array binding signal (z-score)” value [11]?
A: -0.297

Q: And the “glycan array binding signal (z-score)” value [12]?
A: -0.325

Q: And the “glycan array binding signal (z-score)” value [13]?
A: -0.404

Q: What about the “glycan array binding signal (z-score)” value [14] of the same binder?
A: -0.302

Q: What about the “glycan array binding signal (z-score)” value [15] of the same binder?
A: -0.382

Q: And the “glycan array binding signal (z-score)” value [16]?
A: -0.473

Q: And the “glycan array binding signal (z-score)” value [17]?
A: -0.394

Q: And the “glycan array binding signal (z-score)” value [18]?
A: -0.212

Q: What about the “glycan array binding signal (z-score)” value [19] of the same binder?
A: -0.145

Q: And the “glycan array binding signal (z-score)” value [20]?
A: -0.258

Q: And the “glycan array binding signal (z-score)” value [21]?
A: -0.368

Q: And the “glycan array binding signal (z-score)” value [22]?
A: -0.279

Q: What about the “glycan array binding signal (z-score)” value [23] of the same binder?
A: -0.252

Q: What about the “glycan array binding signal (z-score)” value [24] of the same binder?
A: -0.322

Q: What about the “glycan array binding signal (z-score)” value [25] of the same binder?
A: -0.059

Q: And the “glycan array binding signal (z-score)” value [26]?
A: -0.13

Q: What about the “glycan array binding signal (z-score)” value [27] of the same binder?
A: -0.342

Q: What about the “glycan array binding signal (z-score)” value [28] of the same binder?
A: -0.032

Q: What about the “glycan array binding signal (z-score)” value [29] of the same binder?
A: -0.243

Q: And the “glycan array binding signal (z-score)” value [30]?
A: -0.292

Q: What about the “glycan array binding signal (z-score)” value [31] of the same binder?
A: -0.371

Q: And the “glycan array binding signal (z-score)” value [32]?
A: -0.209

Q: What about the “glycan array binding signal (z-score)” value [33] of the same binder?
A: -0.272

Q: And the “glycan array binding signal (z-score)” value [34]?
A: -0.372

Q: And the “glycan array binding signal (z-score)” value [35]?
A: -0.391

Q: What about the “glycan array binding signal (z-score)” value (Fuc(a1-3)GlcNAc) of the same binder?
A: -0.329

Q: What about the “glycan array binding signal (z-score)” value [36] of the same binder?
A: -0.237

Q: What about the “glycan array binding signal (z-score)” value [37] of the same binder?
A: -0.28

Q: What about the “glycan array binding signal (z-score)” value [38] of the same binder?
A: -0.075

Q: What about the “glycan array binding signal (z-score)” value [39] of the same binder?
A: -0.134

Q: What about the “glycan array binding signal (z-score)” value [40] of the same binder?
A: -0.334

Q: What about the “glycan array binding signal (z-score)” value [41] of the same binder?
A: -0.064

Q: What about the “glycan array binding signal (z-score)” value [42] of the same binder?
A: -0.236

Q: And the “glycan array binding signal (z-score)” value [43]?
A: -0.445

Q: What about the “glycan array binding signal (z-score)” value [44] of the same binder?
A: -0.264
